In patent US11457629B2, “Heteroarylphenylaminoquinolines and analogues” (Bayer Aktiengesellschaft, priority 2017, dated 2022):

Description: In the following, measurement of Log P values was performed according to EEC directive 79/831 Annex V.A8 by HPLC (High Performance Liquid Chromatography) on reversed phase columns with the following methods: • ^[a]
If more than one Log P value is available within the same method, all the values are given and separated by “+”.
Calibration was done with straight-chain alkan2-ones (with 3 to 16 carbon atoms) with known Log P values (measurement of Log P values using retention times with linear interpolation between successive alkanones). Lambda-max-values were determined using UV-spectra from 200 nm to 400 nm and the peak values of the chromatographic signals.

SMILES | Log P | logP
CCn1nccc1-c1cc(F)ccc1Nc1cnc2c(F)c(F)ccc2c1 [Example I-163] | – | 3.17 ^[a]
CC(C)n1nccc1-c1c(F)cccc1Nc1cnc2c(F)c(F)ccc2n1 [Example I-105] | – | 3.85 ^[a]
Cc1cc(C)c(Nc2cc3ccc(F)c(F)c3nc2C)c(-c2ccnn2C)c1F [Example I-110] | – | 3.50 ^[a]
Cn1nccc1-c1ccccc1Cc1cnc2ccccc2c1 [Example I-065] | – | 1.77 ^[a]
Cc1nc2ccccc2cc1Nc1ccccc1-c1ccn(C)n1 [Example I-002] | – | 2.01 ^[a]
Fc1ccc(Cn2nccc2-c2ccccc2Cc2cnc3ccccc3c2)cc1 [Example I-179] | – | 2.86 ^[a]
CC(C)c1ccnn1-c1c(F)cccc1Nc1cnc2ccccc2c1 [Example I-076] | – | 3.15 ^[a]
Cc1nc2ccccc2cc1Nc1ccccc1-c1ccn(C(C)C)n1 [Example I-004] | – | 2.65 ^[a]
c1ccc(CCn2nccc2-c2ccccc2Nc2cnc3ccnn3c2)cc1 [Example I-138] | – | 3.02 ^[a]
CC1=NOC(c2ccccc2Nc2cc3ccccc3nc2C)C1 (stereo not shown) [Example I-012] | – | 2.75 ^[b]
Cc1ccc(F)c(-c2c(Br)cnn2C)c1Nc1cc2ccc(F)c(F)c2nc1C [Example I-111] | – | 3.59 ^[a]
Cc1nc2ccccc2cc1Nc1cccc(F)c1-c1ccn(C(C)C)n1 [Example I-028] | – | 3.09 ^[a]
Cc1nc2ccccc2cc1Nc1cccc(F)c1-c1ccnn1C [Example I-030] | – | 1.79 ^[a]
Cc1ccc(F)c(-c2ccnn2C)c1Nc1cc2ccc(F)c(F)c2nc1C [Example I-109] | – | 3.11 ^[a]
Cc1nc2c(F)c(F)ccc2cc1Nc1cccc(F)c1-c1ccnn1CCc1ccccc1 [Example I-122] | – | 4.34 ^[a]
Cc1nc2c(F)c(F)ccc2cc1Nc1ccccc1-c1ccn(C(C)(C)C)n1 [Example I-049] | – | 5.39 ^[a]
CCn1nccc1-c1cc(F)ccc1Nc1cnc2ccccc2c1C [Example I-170] | – | 1.98 ^[a]
Cc1nc2c(F)c(F)ccc2c(C)c1Nc1cccc(F)c1-c1ccnn1C [Example I-061] | – | 3.31 ^[a]
CC(C)n1nccc1-c1c(F)cccc1Nc1cnc2ccccc2c1Cl [Example I-101] | – | 3.96 ^[a]
Cn1nccc1-c1c(F)cccc1Nc1cnc2c(F)c(F)ccc2c1 [Example I-082] | – | 2.92 ^[a]
Cc1nc2c(F)cccc2cc1Nc1ccccc1C1=NOC(C)(C)C1 [Example I-038] | – | 4.16 ^[a]
Cc1nc2ccccc2cc1Nc1ccccc1C1=NOC(C)(C)C1 [Example I-040] | – | 2.50 ^[a]
Cn1nccc1-c1ccccc1Nc1cnc2ccccc2c1Cl [Example I-165] | – | 2.86 ^[a]
Cc1nc2c(F)c(F)ccc2cc1Nc1ccccc1-c1ccnn1C(C)C [Example I-129] | – | 3.58 ^[a]

SMILES | Log P | logP
CCn1nccc1-c1cc(F)ccc1Nc1cnc2c(F)c(F)ccc2n1 [Example I-135] | – | 3.27 ^[a]
CC1=NOC(C)(c2ccccc2Nc2cc3ccccc3nc2C)C1 (stereo not shown) [Example I-021] | – | 3.12 ^[b]
CCn1nccc1-c1c(F)cccc1Nc1cnc2ccccc2c1Cl [Example I-089] | – | 3.48 ^[a]
Fc1cccc(Nc2cnc3nccn3c2)c1-c1ccnn1CCc1ccccc1 [Example I-120] | – | 1.79 ^[a]
Cn1ccc(-c2ccccc2Nc2cnc3ccccc3c2)n1 [Example I-001] | – | 2.70 ^[a]
Cc1nc2ccccc2cc1Nc1cccc(F)c1-c1ccn(C)n1 [Example I-026] | – | 2.43 ^[a]
Fc1cccc(Nc2cnc3c(F)cccc3c2)c1-c1ccnn1CCc1ccccc1 [Example I-124] | – | 3.29 ^[a]
Cc1nc2c(F)c(F)ccc2cc1Nc1ccccc1-c1ccnn1Cc1ccccc1 [Example I-097] | – | 4.08 ^[a]
c1ccc(Cn2nccc2-c2ccccc2Cc2cnc3ccccc3c2)cc1 [Example I-125] | – | 2.75 ^[a]
COC(=O)c1ccnn1-c1c(F)cccc1Nc1cnc2ccccc2c1 [Example I-078] | – | 2.33 ^[a]
Cc1cc(C)c(Nc2cc3ccc(F)c(F)c3nc2C)c(-c2c(C)cnn2C)c1F [Example I-113] | – | 3.59 ^[a]
CCn1nccc1-c1c(F)cccc1Nc1cnc2c(F)c(F)ccc2c1 [Example I-088] | – | 3.15 ^[a]
CC(C)n1nccc1-c1c(F)cccc1Nc1cnc2ccccc2c1 [Example I-031] | – | 2.92 ^[a]
Cc1nc2c(F)c(F)ccc2cc1Nc1cccc(F)c1-c1ccnn1C(C)C [Example I-051] | – | 3.94 ^[a]
CCn1ncnc1-c1ccccc1Cc1cnc2ccccc2c1 [Example I-074] | – | 1.51 ^[a]
Cn1nccc1-c1cc(F)ccc1Nc1cnc2c(F)c(F)ccc2c1 [Example I-153] | – | 2.86 ^[a]
Fc1cccc(Nc2cnc3c(F)c(F)ccc3c2)c1-c1ccnn1CCc1ccccc1 [Example I-121] | – | 4.08 ^[a]
c1ccc(-c2cc[nH]n2)c(Cc2cnc3ccccc3c2)c1 [Example I-126] | – | 1.53 ^[a]
Cc1cc(C)c(Nc2cc3ccc(F)c(F)c3nc2C)c(-c2c(Br)cnn2C)c1F [Example I-115] | – | 3.99 ^[a]
Cc1nc2ccccc2nc1Nc1ccccc1-c1ccnn1C [Example I-158] | – | 2.57 ^[a]
Cc1nc2c(F)c(F)ccc2cc1Nc1ccccc1C1=NOCC1C (racemic) [Example I-058] | – | 4.04 ^[a]
Cc1c(Nc2cccc(F)c2-c2ccnn2CCc2ccccc2)cnc2ccccc12 [Example I-119] | – | 3.29 ^[a]
Cc1ccc(Nc2nc3ccc(F)c(F)c3nc2C)c(-c2ccnn2C)c1F [Example I-130] | – | 3.37 ^[a]
Cc1ccc(Nc2c(C)nc3c(F)c(F)ccc3c2C)c(-c2ccnn2C)c1F [Example I-114] | – | 3.72 ^[a]

Second part, the molecule after the results:

Log P | logP | SMILES
3.11 ^[a] | – | Cc1cc(-c2cc(F)ccc2Nc2cc3ccc(F)c(F)c3nc2C)n(C)n1 [Example I-298]
– | 2.15 ^[a] | Cc1ccc(Nc2cnc3ccnn3c2)c(-c2ccnn2C)c1 [Example I-210]
3.08 ^[a] | – | Cn1nccc1-c1c(F)cccc1Nc1cnc2c(F)c(F)ccc2c1F [Example I-275]
– | 2.92 ^[a] | Cc1ccc(Nc2nc3ccccc3nc2C)c(-c2ccnn2C)c1 [Example I-223]
– | 3.28 ^[a] | CCn1nccc1-c1c(Nc2cnc3c(F)c(F)ccc3c2)ccc(F)c1F [Example I-245]
– | 3.11 ^[a] | Cc1c(Nc2cccc(F)c2-c2ccnn2C)cnc2c(F)c(F)ccc12 [Example I-195]
– | 3.40 ^[a] | CCn1nccc1-c1cc(F)ccc1Nc1nc2ccc(F)c(F)c2nc1C [Example I-190]
– | 3.97 ^[a] | Fc1ccc(Nc2cnc3c(F)c(F)ccc3c2)c(-c2ccnn2CCc2ccccc2)c1 [Example I-183]
3.72 ^[a] | – | Cc1nc2c(F)c(F)ccc2cc1Nc1ccc(F)cc1-c1c(C(F)(F)F)cnn1C [Example I-308]
4.15 ^[a] | – | Cc1nc2c(F)c(F)ccc2nc1Cc1ccccc1-c1ccnn1Cc1ccccc1 [Example I-342]
– | 3.81 ^[a] | Fc1cccc2cc(Nc3ccccc3-c3ccnn3CCc3ccccc3)cnc12 [Example I-184]
3.11 ^[a] | – | Cn1nccc1-c1c(Nc2cnc3c(F)c(F)ccc3c2F)ccc(F)c1F [Example I-273]
2.90 ^[a] | – | Cn1nccc1-c1ccccc1C(F)(F)c1cnc2c(F)cccc2c1 [Example I-360]
– | 1.51 ^[a] | Cc1cccc2cc(Nc3ccc(F)cc3-c3cncn3C)cnc12 [Example I-248]
– | 3.27 ^[a] | Cc1nc2c(F)c(F)ccc2cc1Nc1ccc(F)c(F)c1-c1ccnn1C [Example I-234]
– | 2.11 ^[a] | Cn1nccc1-c1c(Nc2cnc3ccnn3c2)ccc(F)c1F [Example I-239]
4.76 ^[a] | – | Cc1nc2c(F)c(F)ccc2cc1Nc1cccc(F)c1-c1cc(C(F)(F)F)nn1C(C)C [Example I-305]

Log P | logP | SMILES
3.33 ^[a] | – | CCn1nccc1-c1ccccc1Cc1cc2ccc(F)c(F)c2nc1C [Example I-277]
1.36 ^[a] | – | Cc1nc2ccccc2cc1Cc1ccccc1-c1ccnn1C [Example I-348]
3.11 ^[a] | – | CCn1nccc1-c1ccccc1Cc1cnc2c(F)c(F)ccc2c1 [Example I-343]
3.50 ^[a] | – | Cc1nc2c(F)c(F)ccc2cc1Nc1ccc(F)cc1-c1c(Cl)cnn1C [Example I-322]
3.23 ^[a] | – | Cc1cnn(C)c1-c1c(F)cccc1Nc1cc2ccc(F)c(F)c2nc1C [Example I-287]
1.98 ^[a] | – | CCn1nccc1-c1c(F)c(F)cc(F)c1Nc1cnc2ccccc2c1C [Example I-260]
– | 3.00 ^[a] | Cc1nc2c(F)c(F)ccc2nc1Nc1ccc(F)cc1-c1ccnn1C [Example I-181]
3.41 ^[a] | – | Cc1nc2c(F)c(F)ccc2cc1Nc1ccc(F)cc1-c1ccnn1C1CC1 [Example I-296]
2.88 ^[a] | – | CCn1ncc(F)c1-c1c(F)ccc(F)c1Nc1nc2ccccc2nc1C [Example I-311]
– | 2.80 ^[a] | Cc1c(Nc2cccc(F)c2-c2ccnn2C)cnc2c(F)cccc12 [Example I-207]
– | 3.13 ^[a] | Cc1cccc2cc(Nc3ccc(Cl)cc3-c3ccnn3C)cnc12 [Example I-225]
4.20 ^[a] | – | Cc1nc2c(F)c(F)ccc2cc1Cc1ccccc1-c1ccnn1C(C)(C)C [Example I-307]
– | 3.13 ^[a] | Cn1nccc1-c1cc(Cl)ccc1Nc1cnc2c(F)cccc2c1 [Example I-226]
– | 3.23 ^[a] | Cc1ccc(Nc2cnc3c(F)c(F)ccc3n2)c(-c2ccnn2C)c1 [Example I-218]
– | 3.39 ^[a] | CCn1nccc1-c1c(Nc2cc3ccc(F)c(F)c3nc2C)ccc(F)c1F [Example I-243]
3.19 ^[a] | – | Cc1nc2c(F)c(F)ccc2cc1Nc1cccc(F)c1-c1c(C)nn(C)c1C [Example I-284]
3.99 ^[a] | – | Cc1nc2c(F)c(F)ccc2cc1Nc1ccc(F)cc1-c1ccnn1Cc1ccccc1 [Example I-326]

Marks after values point to notes of the source that are not given here.
